From article PMC4336329 (PLoS ONE, 2015)
Screen size: about 310,000 compounds; about 2,200 (0.71%) showed an effect of 50% or more. The effect is printed as a negative number. Some of the results follow.

target: human ether-à-go-go-related gene (hERG) potassium channel (human, UniProt Q12809); experiment: primary screen, population patch clamp on CHO cells stably expressing hERG
Sequence (Q12809 whole entry, looked up): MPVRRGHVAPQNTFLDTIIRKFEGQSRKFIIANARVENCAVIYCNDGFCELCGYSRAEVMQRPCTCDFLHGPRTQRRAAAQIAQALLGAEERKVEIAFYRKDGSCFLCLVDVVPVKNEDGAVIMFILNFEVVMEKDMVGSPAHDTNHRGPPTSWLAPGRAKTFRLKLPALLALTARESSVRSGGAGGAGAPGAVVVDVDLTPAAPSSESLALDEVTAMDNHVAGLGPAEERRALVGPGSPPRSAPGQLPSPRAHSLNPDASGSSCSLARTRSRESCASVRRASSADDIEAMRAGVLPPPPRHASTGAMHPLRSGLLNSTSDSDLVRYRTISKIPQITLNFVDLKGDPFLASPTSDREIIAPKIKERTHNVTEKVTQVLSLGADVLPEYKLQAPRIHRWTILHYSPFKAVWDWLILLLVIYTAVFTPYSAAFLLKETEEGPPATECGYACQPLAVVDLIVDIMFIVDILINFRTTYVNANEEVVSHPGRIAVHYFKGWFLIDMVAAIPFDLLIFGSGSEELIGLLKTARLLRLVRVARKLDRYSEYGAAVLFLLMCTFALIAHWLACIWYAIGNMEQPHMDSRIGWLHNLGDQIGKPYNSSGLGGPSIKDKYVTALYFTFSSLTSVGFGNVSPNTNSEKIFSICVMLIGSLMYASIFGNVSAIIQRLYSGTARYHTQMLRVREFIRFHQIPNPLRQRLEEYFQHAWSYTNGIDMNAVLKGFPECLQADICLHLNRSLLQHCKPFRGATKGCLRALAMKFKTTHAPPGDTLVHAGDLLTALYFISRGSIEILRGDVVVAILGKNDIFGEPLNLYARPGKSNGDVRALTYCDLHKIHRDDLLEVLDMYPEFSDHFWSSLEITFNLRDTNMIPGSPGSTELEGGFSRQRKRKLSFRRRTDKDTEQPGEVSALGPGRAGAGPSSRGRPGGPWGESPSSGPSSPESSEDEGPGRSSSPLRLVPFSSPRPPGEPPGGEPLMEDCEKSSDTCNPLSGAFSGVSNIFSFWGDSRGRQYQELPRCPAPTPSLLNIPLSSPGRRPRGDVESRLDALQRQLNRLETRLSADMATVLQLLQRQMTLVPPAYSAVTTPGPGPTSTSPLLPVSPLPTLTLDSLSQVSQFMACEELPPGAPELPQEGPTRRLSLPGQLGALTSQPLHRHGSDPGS

| SMILES | hERG current change (%, negative = inhibition) at 1uM |
| --- | --- |
| CCOC(=O)C1CCN(C(=O)Nc2ccc3c(c2)nc(C)n3C)CC1 | 7.22% |
| O=C(Nc1ccc2ccccc2c1)N1CCCN(CCOc2ccccc2)CC1 | -48.1% |
| Cc1c(C#N)c2ccccc2n1CC(=O)N1CCCC1 | 10.5% |
| C/C(=C\C(=O)c1ccc(Br)cc1)NCc1ccc(C)cc1 | 11% |
| CC(C)CCn1cnc2c(oc3nc4c(cc32)CCCC4)c1=O | 3.93% |
| CCC(C)NC(=O)C1(C)CCC(=O)N1CCc1ccc(OC)c(OC)c1 (stereo not shown) | -7.7% |
| CCOC(=O)c1ccc(N2C(=O)C3CCOc4ccccc4C32)cc1 (stereo not shown) | 14% |
| CCc1nc(SCc2cccnc2)[nH]c(=O)c1C | 18.1% |
| N#Cc1ccc(-c2ccc(OCC(O)CN3CCOCC3)cc2)cc1 (stereo not shown) | 7.69% |
| Cc1cc(C)n(S(=O)(=O)c2cc(C(=O)O)c(Cl)cc2Cl)n1 | 8.76% |
| COc1ccc(CN2CCNC(=O)C2CC(=O)NCc2cn3ccc(C)cc3n2)c(OC)c1 (stereo not shown) | 2.64% |
| Cc1ccccc1N(CC(=O)NCc1ccco1)C(=O)CCC(=O)Nc1nccs1 | 11.2% |
| COCCCN=Cc1c(C)[nH]n(-c2ccc(Br)c(C)c2)c1=O | 5.05% |
| CC(C)c1nnc(NC(=O)CCC(=O)Nc2ccc(F)cc2)s1 | 17.5% |
| CCc1ccc(N(CC(=O)NC2CCCCC2)C(=O)CNC(=O)c2ccco2)cc1 | 4.93% |
| CS(=O)(=O)c1ccc2nc(NC(=O)c3ccccc3)sc2c1 | 10.4% |
| CCN1CCN(C(=O)c2ccc3c(=O)n(C4CCCC4)c(=S)[nH]c3c2)CC1 | 10.5% |
| CCOC(=O)C1(CCCc2ccccc2)CCN(C(=O)CCn2cnnn2)CC1 | 0.61% |
| O=C(c1cc(-c2cccnc2)nc2ccc(Cl)cc12)N1CCC2(CC1)OCCO2 | 5.12% |
| COc1ccccc1C(=O)Oc1ccc(C(C)C)cc1 | -1.15% |
| O=C(CSc1n[nH]c(=O)n1C1CC1)NCc1ccccc1 | 9.68% |
| COc1ccc(CCNc2oc(-c3ccccc3OC)nc2C#N)cc1OC | 11.7% |
| Cc1nn(-c2ccc(F)cc2)c2nc(N)c(C#N)c(-c3ccc(O)c(O)c3)c12 | 9.42% |
| O=c1cc(N2CCN(Cc3ccccc3)CC2)c(-c2ccccc2)n[nH]1 | 20.2% |
| COc1ccc(/C=C(/NC(=O)c2ccco2)C(=O)N2CCCCC2)cc1 | 8.14% |
